Measured values reported in PMC4336329 (PLoS ONE, 2015).
In all, about 310,000 compounds went through this assay and about 2,200 (0.71%) showed an effect of 50% or more. Effects have a minus sign here. The list shows a part of the results.

Each molecule was assayed against human ether-à-go-go-related gene (hERG) potassium channel (human, UniProt Q12809) (assay: primary screen, population patch clamp on CHO cells stably expressing hERG).
Sequence of human ether-à-go-go-related gene (hERG) potassium channel (Q12809 whole entry, looked up): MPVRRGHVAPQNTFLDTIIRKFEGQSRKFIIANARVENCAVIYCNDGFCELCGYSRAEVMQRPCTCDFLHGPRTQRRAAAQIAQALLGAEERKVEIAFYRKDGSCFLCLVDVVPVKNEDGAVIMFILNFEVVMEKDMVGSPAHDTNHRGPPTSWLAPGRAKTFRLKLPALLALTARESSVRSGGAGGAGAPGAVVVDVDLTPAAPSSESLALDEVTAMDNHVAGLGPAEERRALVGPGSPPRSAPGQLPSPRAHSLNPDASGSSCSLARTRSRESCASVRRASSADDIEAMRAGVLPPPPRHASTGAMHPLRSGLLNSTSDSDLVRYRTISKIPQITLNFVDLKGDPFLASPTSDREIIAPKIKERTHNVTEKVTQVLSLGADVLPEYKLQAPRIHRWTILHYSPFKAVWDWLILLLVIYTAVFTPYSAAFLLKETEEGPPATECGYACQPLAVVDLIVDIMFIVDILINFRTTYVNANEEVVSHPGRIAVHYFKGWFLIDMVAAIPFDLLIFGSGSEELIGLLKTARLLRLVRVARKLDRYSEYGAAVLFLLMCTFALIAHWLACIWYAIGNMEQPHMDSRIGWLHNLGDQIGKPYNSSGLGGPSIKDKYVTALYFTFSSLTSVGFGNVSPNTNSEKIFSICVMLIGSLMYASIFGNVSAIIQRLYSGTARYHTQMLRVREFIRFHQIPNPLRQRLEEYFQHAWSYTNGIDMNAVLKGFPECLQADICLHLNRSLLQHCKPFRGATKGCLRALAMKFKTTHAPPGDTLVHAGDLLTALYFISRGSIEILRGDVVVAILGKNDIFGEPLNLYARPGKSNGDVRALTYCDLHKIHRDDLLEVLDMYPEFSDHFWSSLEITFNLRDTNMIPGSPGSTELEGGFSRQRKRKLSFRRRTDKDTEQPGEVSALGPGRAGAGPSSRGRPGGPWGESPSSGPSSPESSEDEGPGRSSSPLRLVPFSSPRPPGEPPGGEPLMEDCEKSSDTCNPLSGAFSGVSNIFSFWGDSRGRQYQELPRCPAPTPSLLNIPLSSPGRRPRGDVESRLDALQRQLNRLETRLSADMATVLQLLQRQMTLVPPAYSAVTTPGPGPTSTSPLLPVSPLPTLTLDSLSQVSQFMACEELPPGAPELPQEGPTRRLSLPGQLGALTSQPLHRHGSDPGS
In the case of N#Cc1c(NC(=S)NC(=O)c2ccccc2)sc2c1CCCC2, the “hERG current change (%, negative = inhibition) at 1uM” value is reported as 12.6%. In the case of CCOC(=O)C1=C(C)N=c2s/c(=C/c3ccc(OCC(=O)O)cc3)c(=O)n2C1c1ccc(SC)cc1 (stereo not drawn), the “hERG current change (%, negative = inhibition) at 1uM” value is reported as 13.8%. With COc1ccc(C(=O)NCc2ccc(N3CCN(C(=O)OC(C)(C)C)CC3)cc2)cc1 the “hERG current change (%, negative = inhibition) at 1uM” value was -5.88%. For Cc1ccc(NC(=O)CSc2nnc(CN3CCOCC3)n2C)cc1C, the “hERG current change (%, negative = inhibition) at 1uM” value was 14.1%. In the case of COc1nn(C(C)C(=O)N2N=C(C(F)F)CC2(O)C(F)F)cc1[N+](=O)[O-] (stereo not drawn), the “hERG current change (%, negative = inhibition) at 1uM” value is reported as 4.03%. With COc1ccc(NC(=O)NC23CC4(C)CC(C)(CC(C)(C4)C2)C3)cc1 the “hERG current change (%, negative = inhibition) at 1uM” value was -8.8%. In the case of CC1=C(C(=O)N(C)Cc2ccccc2)C2(CCC(C)CC2)OC1=O (stereo not drawn), the “hERG current change (%, negative = inhibition) at 1uM” value is reported as 2.6%. Cc1cc(NO)c(C(C)C)cc1N=O was tested, and the “hERG current change (%, negative = inhibition) at 1uM” value was 1.6%. COCCn1c(SCC(=O)Nc2ccc(C(C)=O)cc2)nnc1-c1ccco1 was tested, and the “hERG current change (%, negative = inhibition) at 1uM” value was 1.12%. For COc1ccc(Cc2nnc(NC(C)=O)s2)cc1, the “hERG current change (%, negative = inhibition) at 1uM” value was 8.54%. For COc1ccc(NC(=O)c2cc3c(=O)n(C)c4ccccc4c3n2C)cc1Cl, the “hERG current change (%, negative = inhibition) at 1uM” value was 14.4%. CC(C)(C)OC(=O)CC[C@@H](C(=O)N1CCN(C(=O)OC(C)(C)C)CC1)n1cc(C(Cc2ccc(O)cc2)NC(=O)OC(C)(C)C)nn1 (stereo partly drawn) was tested, and the “hERG current change (%, negative = inhibition) at 1uM” value was 14.1%. With COc1cccc2c1cc1c(=O)n(CC(=O)NC3CCCCC3)nc(C)n12 the “hERG current change (%, negative = inhibition) at 1uM” value was 16%. For COc1ccccc1NC(=O)C(C)OC(=O)Cn1cnc2c1c(=O)n(C)c(=O)n2C (stereo not drawn), the “hERG current change (%, negative = inhibition) at 1uM” value was 9.52%. In the case of CCCCC[C@H](O)/C=C/C1=C(CCCCCCC(=O)O)C(=O)CC1, the “hERG current change (%, negative = inhibition) at 1uM” value is reported as 12.7%. In the case of CC(=O)NCc1ccc(S(=O)(=O)N2CCCN(C)CC2)cc1.Cl, the “hERG current change (%, negative = inhibition) at 1uM” value is reported as 14.1%. In the case of CC1SCC(=NOCc2ccccc2)CS1 (stereo not drawn), the “hERG current change (%, negative = inhibition) at 1uM” value is reported as 7.37%. NC(=O)C1CCN(S(=O)(=O)c2cc3c4c(c2)CCN4C(=O)CC3)CC1 was tested, and the “hERG current change (%, negative = inhibition) at 1uM” value was 8.51%. COc1ccc(O)c(CN2CCCC(N3CCc4ccccc4C3)C2)c1 (stereo not drawn) was tested, and the “hERG current change (%, negative = inhibition) at 1uM” value was -1.28%. For COCCC1CCCCN1C(=O)c1cc(COc2cccc(C(C)=O)c2)on1 (stereo not drawn), the “hERG current change (%, negative = inhibition) at 1uM” value was 8.15%. For CC1CN(C(=S)Nc2ccccc2)N(c2ccccc2)C1 (stereo not drawn), the “hERG current change (%, negative = inhibition) at 1uM” value was 9.48%. For CCOC(=O)c1nc(NNC(C)=O)sc1C, the “hERG current change (%, negative = inhibition) at 1uM” value was 6.85%. In the case of CCOC(=O)CCC(=O)Nc1cccc([N+](=O)[O-])c1, the “hERG current change (%, negative = inhibition) at 1uM” value is reported as 12.9%. For C/C(=N\Nc1ccc([N+](=O)[O-])cc1)c1cccc(N)c1, the “hERG current change (%, negative = inhibition) at 1uM” value was -1.76%. With O=C(CCc1cn2ccccc2n1)NC1CCCc2c1cnn2-c1ccccc1F (stereo not drawn) the “hERG current change (%, negative = inhibition) at 1uM” value was 11.8%. CCc1ccc(OCC(=O)NC(=S)Nc2ccc(C)cc2C)c(Br)c1 was tested, and the “hERG current change (%, negative = inhibition) at 1uM” value was 10.5%. With CC(C)n1nc(C(=O)OCC(=O)N(C)C2CCS(=O)(=O)C2)c2ccccc2c1=O (stereo not drawn) the “hERG current change (%, negative = inhibition) at 1uM” value was 8.79%. In the case of Cl.Cn1nnc(C(O)CNCc2cccs2)n1 (stereo not drawn), the “hERG current change (%, negative = inhibition) at 1uM” value is reported as 15%. With Cc1ccnc(NS(=O)(=O)c2ccc(NC(=O)CC(C)c3ccccc3)cc2)n1 (stereo not drawn) the “hERG current change (%, negative = inhibition) at 1uM” value was 14.7%. With CC(=O)c1cccc(NC(=O)Nc2cc3sccc3n2C)c1 the “hERG current change (%, negative = inhibition) at 1uM” value was 5.14%. OCCOCCOCCn1c2ccccc2c2ccccc21 was tested, and the “hERG current change (%, negative = inhibition) at 1uM” value was 9.35%. With O=C(Nc1ccc(OCc2ccccc2)cc1)c1cccs1 the “hERG current change (%, negative = inhibition) at 1uM” value was 14.3%. With CSc1nc2sc3c(c2c(=O)[nH]1)CCC3 the “hERG current change (%, negative = inhibition) at 1uM” value was 14.2%. In the case of Cc1ccc(C(C(=O)NC2CCCC2)N(C(=O)c2csnn2)C2CC2)cc1 (stereo not drawn), the “hERG current change (%, negative = inhibition) at 1uM” value is reported as 5.27%. For Cc1cc(C(=O)CSc2nnc(-c3ccccc3)n2C)c(C)n1C, the “hERG current change (%, negative = inhibition) at 1uM” value was -5.02%. O=C(O)COCC(=O)Nc1ccc(-n2cnnn2)cc1 was tested, and the “hERG current change (%, negative = inhibition) at 1uM” value was 14.7%. In the case of Cc1cc(C)c(OCCOCCN2CCCC2)c(C)c1, the “hERG current change (%, negative = inhibition) at 1uM” value is reported as 0.544%. In the case of CCOC(=O)c1ccc(NC(=O)Nc2ncccc2C)cc1, the “hERG current change (%, negative = inhibition) at 1uM” value is reported as 7.91%. In the case of COc1ccc(C(=O)NNC(=O)CN2CCC(n3nnc4cc(C)ccc43)CC2)cc1, the “hERG current change (%, negative = inhibition) at 1uM” value is reported as 5.47%. In the case of Cc1no[n+]([O-])c1COc1ccc(/C=C(\C#N)C(N)=O)cc1, the “hERG current change (%, negative = inhibition) at 1uM” value is reported as 8.41%. For O=[N+]([O-])c1cccnc1Oc1ccc(C2SCCS2)cc1, the “hERG current change (%, negative = inhibition) at 1uM” value was 11.9%. In the case of CC(c1ccccc1)C(CC(=O)O)C(=O)NC1CCCCC1 (stereo not drawn), the “hERG current change (%, negative = inhibition) at 1uM” value is reported as 17.2%. With CCOC(=O)c1c(C)sc2c1N(C(=O)CN(CC)CC)c1cc(Cl)ccc1S2 the “hERG current change (%, negative = inhibition) at 1uM” value was 12.6%. With Cc1ccc(C)c(NC(=O)c2oc(=O)c3ccccc3c2-c2ccccc2)c1 the “hERG current change (%, negative = inhibition) at 1uM” value was 1.81%. In the case of C=CCn1c(CCNC(=O)c2cccs2)n[nH]c1=S, the “hERG current change (%, negative = inhibition) at 1uM” value is reported as 1.38%. O=C(NCc1ccco1)c1ccc2c(c1)N(Cc1ccccc1)C(=O)CS2=O (stereo not drawn) was tested, and the “hERG current change (%, negative = inhibition) at 1uM” value was 12.5%. With CCCc1ccc(OC(=O)c2ccc(O)cc2Cl)cc1 the “hERG current change (%, negative = inhibition) at 1uM” value was 8.84%. Cc1ccc(S(=O)(=O)Nc2nc3ccccc3nc2NCC2CCCO2)cc1 (stereo not drawn) was tested, and the “hERG current change (%, negative = inhibition) at 1uM” value was 11.8%. For NC(=O)c1ccc(NC(=O)CCc2nc3sc4c(c3c(=O)[nH]2)CCCC4)cc1, the “hERG current change (%, negative = inhibition) at 1uM” value was 5.28%. Cc1ccc(C)c(N(C(=O)c2ccco2)C(C(=O)NC2CCCC2)c2ccco2)c1 (stereo not drawn) was tested, and the “hERG current change (%, negative = inhibition) at 1uM” value was 4.24%. In the case of COCCN(CCOC)C(=O)CC(=O)N(CCOC)CCOC, the “hERG current change (%, negative = inhibition) at 1uM” value is reported as 14.7%. In the case of COc1ccccc1CNC(=O)CSc1nnc2c(n1)[nH]c1ccc(F)cc12, the “hERG current change (%, negative = inhibition) at 1uM” value is reported as -3.03%. COCCNC(=O)c1c(N)n(/N=C/c2cccs2)c2nc3ccccc3nc12 was tested, and the “hERG current change (%, negative = inhibition) at 1uM” value was 3.37%. With O=C(CNC(=O)c1ccco1)OCN1C(=O)c2ccccc2C1=O the “hERG current change (%, negative = inhibition) at 1uM” value was 14.3%. CCCOc1ccc(C2C(C(=O)c3cc4ccccc4o3)=C(O)C(=O)N2c2cc(C)on2)cc1OC (stereo not drawn) was tested, and the “hERG current change (%, negative = inhibition) at 1uM” value was 18.7%. With CN(C)S(=O)(=O)c1ccc(NC(=O)N2CCN(c3ccccc3Cl)CC2)cc1 the “hERG current change (%, negative = inhibition) at 1uM” value was 11.7%. CCOC(=O)c1sc(-c2ccc(F)cc2)cc1N was tested, and the “hERG current change (%, negative = inhibition) at 1uM” value was 8.96%.
